In PubChem BioAssay AID686978 (National Center for Advancing Translational Sciences (NCATS), 2013):
“And” between values parts separate entries of the source, which are not always exact repeats. Equal entries are not always repeated. About 64,000 (15%) of roughly 420,000 compounds were called active. The shares of active, inactive and inconclusive entries below differ from those in the screen. Calls come from the whole dose curve; as a rule, active = well fitted inhibition curve with a large enough effect; inconclusive = small, poorly fitted or top-dose-only effect; inactive = flat fitted curve, though single readings scatter. No potency is given beside an inconclusive call; the fits are too rough.

Assay: qHTS for Inhibitors of human tyrosyl-DNA phosphodiesterase 1 (TDP1): qHTS in cells in absence of CPT; note: nearly all actives have a fitted effect of over 55% in size
Settings: DT40 Tdp1-/- hTDP1 cells, no CPT, ATP luminescence, 48 h; activity change, negative = growth inhibition: at 46.2 µM (top of the series) unless noted
Procedure, shortened: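 Stably hTDP1-transfected Tdp1-null chicken DT40 cells were treated with library compounds minus camptothecin and grown for at least 48 hr at 37 °C, after which cellular ATP was quantified by luminescence.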
% is set by controls: 0 for no effect and ±100 for the full control effect; potency is the fitted concentration of half-maximal effect; tags give direction and shape of the fitted curve.

| Structure (SMILES) | Potency | activity change, negative = growth inhibition |
| --- | --- | --- |
| Cc1cc(N2CCC(C(=O)Nc3ccc(F)cc3F)CC2)n2nc(C)c(-c3ccc(Cl)cc3)c2n1 | inconclusive [inhibitor, partial curve] |  |
| CCOc1ccc(C(=O)Nc2ccc3nc(N(CC)CC)cc(C)c3c2)cc1 | inconclusive [inhibitor, single point] |  |
| CC(C(=O)O)c1ccc(N2Cc3ccccc3C2=O)cc1 (stereo not given) | inconclusive [inhibitor, partial curve, poor fit] |  |
| NC(=O)c1ccc(NC(=O)CS(=O)(=O)c2cn(CC(=O)N3CCCCC3)c3ccccc23)cc1 |  | inactive: 8.36% |
| Cc1ccc(/C=C/C(=O)Nc2ccc3nc(N4CCC(C)CC4)cc(C)c3c2)cc1 | active: 3.66 µM |  |
| O=C(NCCN1CCOCC1)c1cnn2c(-c3ccccc3)cc(-c3ccccc3)nc12 | active: 23.1 µM |  |
| CCOc1cccc2sc(NC(=O)c3ccc(S(=O)(=O)N4CCCCC4C)cc3)nc12 (stereo not given) | inconclusive [inhibitor, partial curve] |  |
| O=C(c1ccco1)N1CCCC(N2CCN(c3ccccc3F)CC2)C1 (stereo not given) | inconclusive [inhibitor, single point] |  |
| CC1(c2nc3ccccc3[nH]2)CCC(=O)N1Cc1cccs1 (stereo not given) |  | inactive: 15.8% |
| Clc1cccc(C2CCN(Cc3nc(CC4CC4)no3)C2)c1 (stereo not given) |  | inactive: -15.1% |
| CCN(c1cccc(C)c1)S(=O)(=O)c1cc2c(cc1C)n(C)c(=O)c(=O)n2C |  | inactive: -21.8% |
| COc1ccc(S(=O)(=O)/N=C2\C=C(NS(=O)(=O)c3ccccc3)C(=O)c3ccccc32)cc1 | inconclusive [inhibitor, single point] |  |
| Cc1ccc(-c2csc3nc(-c4ccncc4)[nH]c(=O)c23)cc1 | active: 2.59 µM |  |
| COc1ccc(NS(=O)(=O)c2cc(NC(=O)c3cnc(C)cn3)ccc2N2CCCCC2)cc1 | inconclusive [inhibitor, single point] |  |
| CCOc1ccc(NC(=O)c2sc(-n3nc(C)c(Cc4ccc(Cl)cc4)c3C)nc2C)cc1 |  | inactive: -21.4% |
| Clc1ccccc1Cn1c(-c2cccs2)nc2ccccc21 | inconclusive [inhibitor, single point] |  |
| CC(C)(C)c1cc2cccnc2n1Cc1ccccc1 | inconclusive [inhibitor, partial curve] |  |
| Cc1ccc(Nc2c3c(nc4ccccc24)CCC3)cc1 | active: 18.4 µM |  |
| CC1CCN(c2c(NCC3CCC(C(=O)N4CCc5ccccc5C4)CC3)c(=O)c2=O)CC1 (stereo not given) | inconclusive [inhibitor, single point] |  |
| COc1cc(CN2CCN(C(c3ccccc3)c3ccccc3)CC2)cc(OC)c1OC | active: 3.26 µM |  |
| Cc1nnc(NC(=O)c2nc(SC(C)C)ncc2Cl)s1 |  | inactive: -8.26% |
| O=[N+]([O-])c1ccccc1/C=N/n1c(COc2ccccc2)n[nH]c1=S | inconclusive [inhibitor, partial curve, poor fit] |  |
| Cc1ccc(NS(=O)(=O)c2ccc3c(c2)NC(=O)CO3)cc1 |  | inactive: -24% |
| CCNC(=O)COC(=O)c1cc(S(=O)(=O)N2CCCc3ccccc32)ccc1Cl |  | inactive: -5.85% |
| CCOC(=O)c1c(C)[nH]c(C)c1S(=O)(=O)N1CCN(c2cc(Cl)ccc2C)CC1 | inconclusive [inhibitor, single point] |  |

| Structure (SMILES) | Potency | activity change, negative = growth inhibition |
| --- | --- | --- |
| O=C1C=C(c2ccc(Br)c3ccccc23)C[C@@H](c2ccc3c(c2)OCO3)C1 | inconclusive [inhibitor, single point] |  |
| COc1cc(C)c(CNc2cc(C)cc(C)c2)cc1C | inconclusive [inhibitor, single point] |  |
| COc1ccc(OC)c(-c2cc(C(=O)NCc3cccs3)no2)c1 | inconclusive [inhibitor, single point] |  |
| NC(=O)c1nnsc1-c1ccco1 |  | inactive: -18.2% |
| CC(C)C(NC(=O)c1c(F)cccc1F)C(=O)NNC(=O)c1ccccc1 (stereo not given) |  | inactive: 11.9% |
| COCC(C)n1c(C)cc(C(=O)CSc2nnc(N)s2)c1C (stereo not given) | inconclusive [inhibitor, single point] |  |
| CCSC(=O)N1c2ccc(OC)cc2C=CC1C#N (stereo not given) | active: 0.0052 µM |  |
| Cc1ccc(NC(=O)C2=NNC(=O)CC2)cc1S(=O)(=O)Nc1ccc(SC(F)F)cc1 | inconclusive [inhibitor, partial curve] |  |
| COc1ccc2c(Cl)c(C(N)=O)sc2c1 |  | inactive: -7.05% |
| Cc1ccc(CNC(=O)C2CC(c3cccc(F)c3)=NO2)cc1 (stereo not given) |  | inactive: -11.6% |
| Cc1cc(N2C(=O)C(O)=C(C(=O)c3cc4ccccc4o3)C2c2cccs2)no1 (stereo not given) | inconclusive [inhibitor, partial curve, poor fit] |  |
| O=C1CCC/C=C/C[C@H](CC(=O)N(CCO)Cc2ccccc2)C(=O)N[C@@H](Cc2ccccc2)CO1 | active: 20.6 µM |  |
| CN(C)/C=C/C(=O)c1ccc(Cl)c([N+](=O)[O-])c1 |  | inconclusive: -30.9% [inhibitor] |
| Cc1ccc(-c2cc(C(=O)NCc3ccc4c(c3)OCO4)[nH]n2)c(O)c1C | inconclusive [inhibitor, single point] |  |
| CC(C)Cn1c(SCC(=O)N2CCCc3ccccc32)nc2ccccc2c1=O | active: 18.4 µM |  |
| COc1ccc2[nH]c3c(c2c1)CCN1C(=O)C(CC(=O)NCc2ccco2)C[C@H](C(=O)N2CCOCC2)[C@@]31CCC1CCCC1 (stereo not given in full) | inconclusive [inhibitor, single point] |  |
| CN(C(=O)COC(=O)c1ccc(=O)n(Cc2ccccc2)n1)c1ccccc1 | active: 18.4 µM |  |
| N#Cc1cccnc1N1CCN(C(C(=O)NC2CCCC2)c2ccco2)CC1 (stereo not given) | inconclusive [inhibitor, single point] |  |
| CC(C)NC(=O)C1Cc2c(-c3ccc4c(c3)OCO4)ccnc2O1 (stereo not given) | inconclusive [inhibitor, single point] |  |
| Cc1noc(C)c1S(=O)(=O)N1CCCC1C(=O)O (stereo not given) |  | inactive: -1.22% |
| CN1CCCN(C(=O)[C@@H]2C[C@@H](Sc3nc4ccccc4[nH]3)CN2Cc2ccc(OC(F)(F)F)cc2)CC1 | inconclusive [inhibitor, single point] |  |
| C[C@H](CO)N1C[C@H](C)[C@H](CN(C)S(C)(=O)=O)OCc2cnnn2CCCC1=O |  | inactive: 3.08% |
| Nc1nc(Nc2cccc(F)c2)nc2ccccc12 | active: 18.4 µM |  |
| CC1(C)CC(NNCCC#N)=CC(=[N+]2CCCC2)C1 | inconclusive [inhibitor, single point] |  |
| CCC(=O)N1CCC(C)(C(=O)NCc2cccc(OC)c2)C1 (stereo not given) |  | inactive: -3.29% |

| Structure (SMILES) | Potency | activity change, negative = growth inhibition |
| --- | --- | --- |
| Cc1cc(S(=O)(=O)NC2CCN(Cc3ccccc3)CC2)c(C)cc1Cl | inconclusive [inhibitor, single point] |  |
| COc1ccc(Br)cc1CN(C)CC(=O)NCc1ccc(F)cc1 | active: 18.4 µM |  |
| COc1cccc(NC(=S)NCCC(c2ccccc2)c2ccccc2)c1 | active: 13 µM |  |
| Cc1nc(Nc2ccccc2)sc1C |  | inactive: 18.8% |
| COc1ccc(NC2CC(=O)N(CCc3ccccc3)C2=O)cc1 (stereo not given) |  | inactive: -30% |
| COc1cc(-c2noc(C)c2/C=C/c2ccc(N)cc2)cc(OC)c1OC | active: 1.12 µM and active: 1.03 µM |  |
| CC1(C)Cc2ccccc2-c2nnc(SCC(=O)Nc3nc4ccccc4s3)n21 | inconclusive [inhibitor, partial curve] |  |
| COc1nc(C#N)nc(N2CCCC2)n1 | active: 15.8 µM |  |
| CS(=O)(=O)Nc1ccc(F)cc1 |  | inactive: 1.38% |
| COc1ccc(CCNC(=O)c2ccc3c(c2)N=C(C)c2ccccc2S3)cc1OC | inconclusive [inhibitor, single point] |  |
| CCCn1c2ccccc2c2cnn(CC(=O)NCCN(CC)CC)c(=O)c21 |  | inconclusive: -31.1% [inhibitor] |
| CSc1ccc(C(O)c2ncc(-c3ccccc3F)[nH]2)cc1 (stereo not given) | inconclusive [inhibitor, single point] |  |
| COc1cccc(NC(=O)CSc2nc3ccccc3c(=O)n2C)c1 | active: 23.1 µM |  |
| COCCNC(=S)N(C)[C@H]1C[C@H]2c3cc(-c4ccccc4)ccc3CCN2C(=O)[C@H]1[C@H](C)O | active: 9.2 µM |  |
| COc1ccc(NC(=O)c2nn(C34CC5CC(CC(C5)C3)C4)cc2[N+](=O)[O-])cc1 |  | inactive: -16.5% |
| CCN1C(=S)N[C@@H](CCc2ccccc2)C(C(=O)OC)=C1C | inconclusive [inhibitor, single point] |  |
| Cn1c(NCc2c(O)ccc3ccccc23)nc2ccccc21 | inconclusive [inhibitor, partial curve] |  |
| O=c1[nH]c2cc(Cl)ccc2n(CCNc2ncc(C(F)(F)F)cc2Cl)c1=O |  | inactive: 2.15% |
| O=C(COc1ccc(F)cc1Cl)Nc1ccc(N2CCOCC2)cc1N1CCOCC1 | inconclusive [inhibitor, partial curve] |  |
| CCOc1c(Cl)cc(CNc2ccc3[nH]c(=O)[nH]c3c2)cc1OC | inconclusive [inhibitor, single point] |  |
| CCOC(=O)c1sc2nc(C)nc(NCc3cccnc3)c2c1C | inconclusive [inhibitor, single point] |  |
| Cc1ccc(-c2cnc(-c3ccccc3C(=O)O)o2)cc1 |  | inactive: -6.96% |
| COc1ccc(CNC(=S)Nc2cc(OC)ccc2OC)cc1 | inconclusive [inhibitor, single point] |  |
| CC(=O)NC(Cc1cc(C)ccc1C)C(=O)N1CCN(C(=O)c2ccc([N+](=O)[O-])cc2)CC1 (stereo not given) |  | inactive: -14.3% |
| CCOC(=O)N1CCC(NC(=O)CS(=O)Cc2nc(-c3ccc(C)cc3)oc2C)CC1 (stereo not given) |  | inactive: -14.8% |
